# Out of some 310,000 compounds screened, about 11,000 (3.5%) were called active. Inconclusive means that the source gave no clear call. Such entries were picked first, then a sample of the others. The call rests on the fitted dose curve; in most records, active means well fitted inhibition curve with a large enough effect; inconclusive means small, poorly fitted or top-dose-only effect, or effect the other way; inactive means flat fitted curve, though single readings scatter. No potency is given beside an inconclusive call; the fits are too rough.
# Test: VP16 counterscreen qHTS for inhibitors of ROR gamma transcriptional activity;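 further: Gal4-VP16 expression switched on by copper sulfate through the metallothionein promoter; nearly all actives have a fitted effect of over 50% in size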
# Settings: Drosophila S2 Gal4-VP16 UAS-luciferase, luminescence, 20 h; activity, negative = inhibition: at 53.6 µM (top of the series)
# On the % scale 0 is the no-effect control and ±100 the full control effect; potency means the concentration at half of the fitted maximal effect; tags describe the fitted curve by direction and shape.
Structure (SMILES),Potency,"activity, negative = inhibition"
CCOC(=O)N1CCN(C(=O)CSc2nnc(-c3ccc(C(C)(C)C)cc3)o2)CC1,"inconclusive [inhibitor, full curve]",
O=C(NN=c1c(=O)c2ccccc2c1=O)c1ccccc1,"inconclusive [inhibitor, partial curve]",
O=C(CSc1nnc(Cn2nnc3ccccc32)o1)N(Cc1ccc(Cl)cc1)c1ccccc1,"inconclusive [inhibitor, single point]",
CC1=N/C(=C\c2ccc([N+](=O)[O-])cc2)C(=O)N1c1ccc(F)cc1F,"inconclusive [inhibitor, single point]",
COc1ccc(CCNC(=O)CCn2c(SCC#N)nc3ccccc3c2=O)cc1OC,"inconclusive [inhibitor, single point]",
C[C@H]1CCCC(=O)CCC/C=C/c2c(O)cc(O)cc2C(=O)O1,"inconclusive [inhibitor, single point]",
Cc1cccc(N2C(=O)CC(Sc3nc(-c4ccccc4)c4cc(Cl)ccc4n3)C2=O)c1 (stereo not drawn),"inconclusive [inhibitor, single point]",
Cc1ccccc1OCCOc1ccccc1C=C(C#N)C#N,"inconclusive [inhibitor, single point]",
O=C(OCn1ncc(Br)c(Br)c1=O)c1ccc(F)cc1,active: 0.631 µM,
OCc1nc2ccccc2n1CC(O)Cn1ccc2ccccc21 (stereo not drawn),"inconclusive [inhibitor, single point]",
COc1cc(CNCc2ccccn2)ccc1OCc1cccc(Cl)c1,"inconclusive [inhibitor, single point]",
CCNc1ncc2nc(-c3ccccc3)c(=O)n(C3CC3)c2n1,,inactive: -4.7%
Oc1[nH]c(=S)sc1/C=C1\C(c2ccccc2)=Nc2ccccc21,,inactive: -13.5%
CN(C)C(=O)c1nc2ccc(Cl)cn2c1CN1CCCC(OCc2ccccc2)C1 (stereo not drawn),,inactive: 1.71%
CCC(=O)c1ccc(OCC(=O)OCC(=O)c2cc(C)n(C)c2C)cc1,active: 1.26 µM,
Cn1c(NC(=O)CCC2CCCCC2)cc(=O)n(C)c1=O,"inconclusive [inhibitor, single point]",
Cn1c(=O)n(C)c2cc(N3CCCC3)c(NC(=O)c3cccc(F)c3)cc21,,inactive: -10.9%
CCOC(=O)c1ccccc1NC1c2ccccc2C(=O)N1C1CCN(C(=O)OCC)CC1 (stereo not drawn),,inactive: -11.7%
O=S(=O)(c1ccccc1F)N1CCN(CCc2ccccc2)CC1,,inactive: 2.12%
Nc1nc(-c2ccccn2)nc(N)c1Cc1ccc(Cl)cc1Cl,active: 8.91 µM,
CC(C)[C@H](N)c1nnc2n1N=C(c1ccc(Cl)cc1)CS2,,inactive: -1.76%
CCc1nc2ccccc2n1CCC(C)C,active: 12.6 µM,
S=C(NCC1CCCO1)NC1CCCCC1 (stereo not drawn),"inconclusive [inhibitor, single point]",
C=CCn1c(C)cc(-c2csc(N)n2)c1C,,inactive: 3.24%
CC(C)(C)c1ccc(S(=O)(=O)NCc2ccccn2)cc1,"inconclusive [inhibitor, single point]",

Structure (SMILES),Potency,"activity, negative = inhibition"
COc1ccc(OC)c(NC(=O)Cn2cc(C#N)c3cc(Br)ccc32)c1,"inconclusive [inhibitor, single point]",
Cn1cc(Br)c(NC(=O)/C=C/C(=O)O)n1,"inconclusive [inhibitor, single point]",
Oc1ccc(-c2cn3c(n2)SCC3)cc1O,"inconclusive [inhibitor, single point]",
CCc1ccccc1NC(=O)CN(C)Cc1c(O)ccc2ccccc12,"inconclusive [inhibitor, single point]",
COc1ccc(CCn2ccc(O)c(Cc3ccc(Cl)cc3Cl)c2=O)cc1OC,,inactive: 7.07% [at 10 µM]
CCN(CC(=O)c1c(N)n(C)c(=O)n(C)c1=O)c1cccc2ccccc12,"inconclusive [inhibitor, partial curve, poor fit]",
COc1cc2c(cc1OC)C(c1cc(Br)ccc1F)N(C(=O)CCl)CC2 (stereo not drawn),"inconclusive [inhibitor, single point]",
O=C(CSc1ccccn1)N/N=C/C=C/c1ccccc1,active: 15.8 µM,
CC(C)c1nc2ccc(C(=O)O)cc2[nH]1,active: 20 µM,
Cc1cccc(Cn2cc(SCC(=O)Nc3nccs3)c3ccccc32)c1,"inconclusive [activator, single point]",
Cc1cc(Oc2nc3c(C)cccn3c(=O)c2/C=C(\C#N)S(=O)(=O)c2ccc(Cl)cc2)ccc1Cl,,inactive: -1.46%
CSc1nnc(C)c(=O)n1COC(=O)c1ccc([N+](=O)[O-])cc1,,inactive: 7.43%
CC/C(=N\NC(=O)c1ccc(CN(C)S(=O)(=O)c2ccc(C)cc2)cc1)c1ccc(OC(F)F)cc1,"inconclusive [inhibitor, single point]",
O=C(Nc1ccc(C(=O)O)cc1)/C(=C\C=C\c1ccccc1)NC(=O)c1ccccc1Br,"inconclusive [inhibitor, single point]",
O=C(c1nn2c(C(F)(F)F)cc(-c3cccs3)nc2c1Br)N1CCCc2ccccc21,,inactive: -0.169%
Cc1ccccc1Nc1nc(CSc2nnc(-c3ccoc3C)n2C)cs1,"inconclusive [inhibitor, single point]",
O=C1C=C(NCc2ccccc2)c2ccccc2C1=O,"inconclusive [inhibitor, single point]",
CN(C)NC(=S)Nc1ccc2nc(-c3ccccn3)c(-c3ccccn3)nc2c1,active: 15.8 µM,
O=[N+]([O-])c1cccc(/C=C/c2ccc3cccc(O)c3n2)c1,active: 4.47 µM,
Cc1ccccc1C(=O)N1CCN(c2ccc(NC(=O)CSc3ccc(Cl)cc3)cc2)CC1,"inconclusive [inhibitor, partial curve]",
S=C(Nc1ccc(Nc2ccccc2)cc1)NC1CCCCCC1,"inconclusive [inhibitor, single point]",
CCOC(=O)c1c(C)[nH]c(C(=O)N/N=C/c2ccc(Br)cc2)c1C,"inconclusive [inhibitor, single point]",
Fc1cccc(C[n+]2csc3ccccc32)c1,"inconclusive [inhibitor, single point]",
Fc1ccccc1CSc1nc2ccccc2[nH]1,"inconclusive [inhibitor, single point]",
CCNc1nc(NCC)nc(N(CC)C(N)=S)n1,"inconclusive [inhibitor, single point]",

Structure (SMILES),Potency,"activity, negative = inhibition"
C/C(=N/Nc1nc(-c2ccccc2)cc(-c2ccccc2)n1)c1ccc(N)cc1,"inconclusive [inhibitor, single point]",
C/C(CC(=O)Nc1cc(C)ccn1)=N\NC(=O)c1ccccc1C,"inconclusive [inhibitor, single point]",
C/C(=N\NC(=O)c1ccc2ccccc2c1)c1cccs1,"inconclusive [inhibitor, single point]",
O=C(NC(=S)Nc1ccc(NC(=O)c2cccs2)cc1)c1ccco1,"inconclusive [inhibitor, partial curve]",
CCC(=O)Nc1cccc(NC(=O)c2ccccc2Cl)c1,,inactive: 17.6%
CCC(C)c1c(O)nc(SCC(=O)N2CCCCCC2)[nH]c1=O (stereo not drawn),,inactive: -6.23%
NC(=O)CC(NC(=O)Cc1ccc(Br)cc1)c1ccc(N2CCC(Br)CC2)c([N+](=O)[O-])c1 (stereo not drawn),"inconclusive [inhibitor, single point]",
CCNC(=S)N/N=C/c1ccc(C#N)cc1,active: 17.8 µM,
O=C1N=C(N2CCOCC2)S/C1=C/c1cc2c(cc1[N+](=O)[O-])OCO2,,inactive: -19.9%
CC(=O)c1ccc(NC(=S)Nc2cccc3ccccc23)cc1,"inconclusive [inhibitor, single point]",
CCOC(=O)N/N=C/C=C/c1ccccc1,"inconclusive [activator, single point]",
O=C(N/N=C/c1cccc(OC(=O)c2ccco2)c1)c1ccc(F)cc1,"inconclusive [inhibitor, single point]",
COc1ccc(-c2nn(-c3ccccc3)cc2C(=O)Nc2nccs2)cc1OC,active: 22.4 µM,
COc1ccc(Nc2nc(N)nc(CCl)n2)cc1,"inconclusive [inhibitor, single point]",
CCOc1ccccc1NC(=S)N1CCN(c2nc(-c3cccc(OC)c3)cs2)CC1,active: 7.94 µM,
COc1ccc(C(=O)NCc2nnc(SCC(=O)Nc3nc4ccccc4s3)o2)cc1,active: 11.2 µM,
CCN(Cc1nc(-c2cccc(C)c2)no1)C(=O)c1ccco1,"inconclusive [activator, single point]",
Cc1cc(-c2csc3nc[nH]c(=S)c23)cc(C)c1C,active: 0.562 µM,
C/C=C/C=C/C(=O)Nc1nccs1,active: 5.62 µM,
Cc1ccc(C(C)C)c(OCc2nn(CC(=O)c3ccc(Cl)cc3)c3[n+]2CCCCC3)c1,"inconclusive [inhibitor, single point]",
CC1Cc2cc(S(=O)(=O)NCc3ccccc3)ccc2N1C(=O)C1CCC1 (stereo not drawn),"inconclusive [inhibitor, partial curve, poor fit]",
C=CCn1c(SCc2ccc(C(=O)O)cc2)nc2sc(C)c(C)c2c1=O,active: 7.08 µM,
COc1ccc2c(c1)O[C@@H](c1cccc(C(F)(F)F)c1)[C@H](OC(=O)N[C@H](C)C1CCCCC1)C2=O,"inconclusive [inhibitor, single point]",

# Reference: PubChem BioAssay AID2546 (National Center for Advancing Translational Sciences (NCATS), 2010)
